B1: TEV protease; numbered along this chain (parent)
chain: MGESLFKGPRDYNPISSSICHLTNESDGHTTSLYGIGFGPFIITNKHLFRRNNGTLVVQSLHGVFKVKDTTTLQQHLVDGRDMIIIRMPKDFPPFPQKLKFREPQREERICLVTTNFQTKSMSSMVSDTSCTFPSGDGIFWKHWIQTKDGQCGSPLVSTRDGFIVGIHSASNFTNTNNYFTSVPKNFMELLTNQEAQQWVSGWRLNADSVLWGGHKVFMVKPEEPFQPVKEATQL

In this assay the parent is B1. The assay is described as follows: raw area under fraction-flipped curve 0-4 h after induction (AUC4h, not background-subtracted), DNA-recorder readout of cleavage of the substrate (dimensionless); higher = more cleavage of the substrate by the protease variant. As to conditions: temperature: 34 °C; time window: 0-4 h after rhamnose induction. As for the experimental part:
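In vivo DNA recorder in E. coli TOP10(DE3) ΔrhaA at 34 °C. Each TEVp single-site mutant (parent TEVp 0) is paired with a single-site variant of the 7-mer TEVs (canonical ENLYFQ|S). The substrate sits between flexible linkers in a Bxb1-sfGFP-TEVs-SsrA fusion, so cleavage stabilises Bxb1 and speeds flipping of a recombination array, read by NGS. The value is the raw area under the fraction-flipped curve over 0-4 h after rhamnose induction (AUC4h), with ≥20 reads per time point. It is not background-subtracted; inactive controls average about 0.047.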

This is an account of results in the supplement of paper PMC12217912.

Some of the results follow. The full chains were built here from the parent and the listed change. Values near 0.05 are background.
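Note: Bxb1 expression induced with 0.2% (w/v) L-rhamnose at OD600 near 0.5, cultures sampled hourly, flipped fraction per protease–substrate barcode pair counted by paired-end Illumina sequencing.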

Consider MGESLFMGPRDYNPISSSICHLTNESDGHTTSLYGIGFGPFIITNKHLFRRNNGTLVVQSLHGVFKVKDTTTLQQHLVDGRDMIIIRMPKDFPPFPQKLKFREPQREERICLVTTNFQTKSMSSMVSDTSCTFPSGDGIFWKHWIQTKDGQCGSPLVSTRDGFIVGIHSASNFTNTNNYFTSVPKNFMELLTNQEAQQWVSGWRLNADSVLWGGHKVFMVKPEEPFQPVKEATQL [K7M], for which the “area with substrate ENLYAQS” value came out at 0.0914, the “area with substrate ENLYCQS” value was 0.0937, the “area with substrate ENLYEQS” value was found to be 0.0659 and the “area with substrate ENLYGQS” value is 0.0686. The “area with substrate ENLYKQS” value is 0.0645, the “area with substrate ENLYMQS” value came out at 0.0568, the “area with substrate ENLYQQS” value turned out to be 0.0859 and the “area with substrate ENLYRQS” value amounted to 0.0737. The “area with substrate ENLYTQS” value was 0.071 and the “area with substrate ENLYYQS” value came to 0.0666.
MGESLFTGPRDYNPISSSICHLTNESDGHTTSLYGIGFGPFIITNKHLFRRNNGTLVVQSLHGVFKVKDTTTLQQHLVDGRDMIIIRMPKDFPPFPQKLKFREPQREERICLVTTNFQTKSMSSMVSDTSCTFPSGDGIFWKHWIQTKDGQCGSPLVSTRDGFIVGIHSASNFTNTNNYFTSVPKNFMELLTNQEAQQWVSGWRLNADSVLWGGHKVFMVKPEEPFQPVKEATQL [K7T]: the “area with substrate ENLYAQS” value is 0.0896, the “area with substrate ENLYDQS” value was found to be 0.0749, the “area with substrate ENLYMQS” value was 0.0756 and the “area with substrate ENLYNQS” value amounted to 0.108. In addition, the “area with substrate ENLYPQS” value came to 0.0602, the “area with substrate ENLYQQS” value turned out to be 0.0758, the “area with substrate ENLYRQS” value turned out to be 0.0785 and the “area with substrate ENLYVQS” value was 0.0055.
With MGESLFRGPRDYNPISSSICHLTNESDGHTTSLYGIGFGPFIITNKHLFRRNNGTLVVQSLHGVFKVKDTTTLQQHLVDGRDMIIIRMPKDFPPFPQKLKFREPQREERICLVTTNFQTKSMSSMVSDTSCTFPSGDGIFWKHWIQTKDGQCGSPLVSTRDGFIVGIHSASNFTNTNNYFTSVPKNFMELLTNQEAQQWVSGWRLNADSVLWGGHKVFMVKPEEPFQPVKEATQL [K7R], the “area with substrate ENLYAQS” value worked out at 0.0857, the “area with substrate ENLYEQS” value came to 0.0577, the “area with substrate ENLYIQS” value was found to be 0.171 and the “area with substrate ENLYKQS” value was found to be 0.0601. For the same variant, the “area with substrate ENLYNQS” value was found to be 0.0711, the “area with substrate ENLYRQS” value is 0.06 and the “area with substrate ENLYWQS” value is 0.0764.
For MGESLFKGPRDYNPISSSICHLTNESDGHTTSLTGIGFGPFIITNKHLFRRNNGTLVVQSLHGVFKVKDTTTLQQHLVDGRDMIIIRMPKDFPPFPQKLKFREPQREERICLVTTNFQTKSMSSMVSDTSCTFPSGDGIFWKHWIQTKDGQCGSPLVSTRDGFIVGIHSASNFTNTNNYFTSVPKNFMELLTNQEAQQWVSGWRLNADSVLWGGHKVFMVKPEEPFQPVKEATQL [Y34T], the “area with substrate ENLYAQS” value was found to be 0.0685, the “area with substrate ENLYCQS” value was found to be 0.0703, the “area with substrate ENLYDQS” value was 0.0638 and the “area with substrate ENLYGQS” value came out at 0.081. Also, the “area with substrate ENLYHQS” value was found to be 0.0555, the “area with substrate ENLYIQS” value worked out at 0.0735, the “area with substrate ENLYKQS” value amounted to 0.0677 and the “area with substrate ENLYNQS” value stood at 0.0634. Also, the “area with substrate ENLYQQS” value was found to be 0.0723, the “area with substrate ENLYSQS” value was found to be 0.0793 and the “area with substrate ENLYWQS” value came to 0.0994.
As for MGESLFKGPRDYNPISSSICHLTNESDGHTMSLYGIGFGPFIITNKHLFRRNNGTLVVQSLHGVFKVKDTTTLQQHLVDGRDMIIIRMPKDFPPFPQKLKFREPQREERICLVTTNFQTKSMSSMVSDTSCTFPSGDGIFWKHWIQTKDGQCGSPLVSTRDGFIVGIHSASNFTNTNNYFTSVPKNFMELLTNQEAQQWVSGWRLNADSVLWGGHKVFMVKPEEPFQPVKEATQL [T31M], the “area with substrate ENLYAQS” value was 0.0698, the “area with substrate ENLYDQS” value amounted to 0.0587, the “area with substrate ENLYEQS” value was 0.0853 and the “area with substrate ENLYHQS” value is 0.0712. Moreover, the “area with substrate ENLYIQS” value turned out to be 0.11, the “area with substrate ENLYKQS” value came out at 0.0616, the “area with substrate ENLYLQS” value was found to be 0.0811 and the “area with substrate ENLYMQS” value amounted to 0.0832. Also, the “area with substrate ENLYQQS” value stood at 0.0602, the “area with substrate ENLYTQS” value amounted to 0.13, the “area with substrate ENLYVQS” value was found to be 0.0657 and the “area with substrate ENLYWQS” value turned out to be 0.0747.
Regarding MGESLFKGPRDYNPISSSICHLTNESDGHHTSLYGIGFGPFIITNKHLFRRNNGTLVVQSLHGVFKVKDTTTLQQHLVDGRDMIIIRMPKDFPPFPQKLKFREPQREERICLVTTNFQTKSMSSMVSDTSCTFPSGDGIFWKHWIQTKDGQCGSPLVSTRDGFIVGIHSASNFTNTNNYFTSVPKNFMELLTNQEAQQWVSGWRLNADSVLWGGHKVFMVKPEEPFQPVKEATQL [T30H], the “area with substrate ENLYAQS” value was 0.0696, the “area with substrate ENLYCQS” value is 0.0739, the “area with substrate ENLYDQS” value was found to be 0.055 and the “area with substrate ENLYEQS” value is 0.0907. Besides, the “area with substrate ENLYGQS” value was determined as 0.0621, the “area with substrate ENLYHQS” value came out at 0.066, the “area with substrate ENLYKQS” value came out at 0.0398 and the “area with substrate ENLYLQS” value came out at 0.0873. For the same variant, the “area with substrate ENLYMQS” value amounted to 0.0759, the “area with substrate ENLYNQS” value stood at 0.0548, the “area with substrate ENLYPQS” value was found to be 0.0565 and the “area with substrate ENLYQQS” value came out at 0.0645. Besides, the “area with substrate ENLYTQS” value was found to be 0.0808, the “area with substrate ENLYVQS” value was determined as 0.115 and the “area with substrate ENLYWQS” value stood at 0.0783.
As to MGESLFKGPRDYNPISSSICHLTNESDGHTTSLYGIGFGPFIITNKHLFSRNNGTLVVQSLHGVFKVKDTTTLQQHLVDGRDMIIIRMPKDFPPFPQKLKFREPQREERICLVTTNFQTKSMSSMVSDTSCTFPSGDGIFWKHWIQTKDGQCGSPLVSTRDGFIVGIHSASNFTNTNNYFTSVPKNFMELLTNQEAQQWVSGWRLNADSVLWGGHKVFMVKPEEPFQPVKEATQL [R50S], the “area with substrate ENLYAQS” value amounted to 0.0814, the “area with substrate ENLYEQS” value stood at 0.0441, the “area with substrate ENLYHQS” value was found to be 0.0564 and the “area with substrate ENLYNQS” value stood at 0.0672. Besides, the “area with substrate ENLYPQS” value stood at 0.0629, the “area with substrate ENLYSQS” value came to 0.0819 and the “area with substrate ENLYYQS” value amounted to 0.0705.
MGESLFKGPRDYNPISSSICHLTNESDGHTTSLYGIGFGPFIITNKHLFTRNNGTLVVQSLHGVFKVKDTTTLQQHLVDGRDMIIIRMPKDFPPFPQKLKFREPQREERICLVTTNFQTKSMSSMVSDTSCTFPSGDGIFWKHWIQTKDGQCGSPLVSTRDGFIVGIHSASNFTNTNNYFTSVPKNFMELLTNQEAQQWVSGWRLNADSVLWGGHKVFMVKPEEPFQPVKEATQL [R50T]: the “area with substrate ENLYAQS” value came to 0.0763, the “area with substrate ENLYEQS” value came to 0.0439, the “area with substrate ENLYGQS” value came to 0.0767 and the “area with substrate ENLYHQS” value is 0.0791. Also, the “area with substrate ENLYIQS” value amounted to 0.131, the “area with substrate ENLYKQS” value worked out at 0.0705, the “area with substrate ENLYLQS” value is 0.096 and the “area with substrate ENLYMQS” value came to 0.0927. The “area with substrate ENLYNQS” value was found to be 0.0679, the “area with substrate ENLYPQS” value was 0.0751, the “area with substrate ENLYQQS” value was 0.0711 and the “area with substrate ENLYRQS” value was 0.0636. The “area with substrate ENLYSQS” value was found to be 0.0872, the “area with substrate ENLYTQS” value worked out at 0.0904, the “area with substrate ENLYWQS” value is 0.0915 and the “area with substrate ENLYYQS” value turned out to be 0.0753.
On to MGESSFKGPRDYNPISSSICHLTNESDGHTTSLYGIGFGPFIITNKHLFRRNNGTLVVQSLHGVFKVKDTTTLQQHLVDGRDMIIIRMPKDFPPFPQKLKFREPQREERICLVTTNFQTKSMSSMVSDTSCTFPSGDGIFWKHWIQTKDGQCGSPLVSTRDGFIVGIHSASNFTNTNNYFTSVPKNFMELLTNQEAQQWVSGWRLNADSVLWGGHKVFMVKPEEPFQPVKEATQL [L5S], for which the “area with substrate ENLYAQS” value amounted to 0.0022, the “area with substrate ENLYEQS” value amounted to 0.0894, the “area with substrate ENLYIQS” value worked out at 0.153 and the “area with substrate ENLYKQS” value amounted to 0.0454. In addition, the “area with substrate ENLYNQS” value is 0.0598, the “area with substrate ENLYPQS” value stood at 0.0813, the “area with substrate ENLYRQS” value was determined as 0.0608 and the “area with substrate ENLYSQS” value amounted to 0.0863. Further, the “area with substrate ENLYTQS” value was 0.0784 and the “area with substrate ENLYWQS” value is 0.0999.
For the variant MGESLFKGPRDYNPISSSICHLTNESDGHTTSLYGIGFGPFIITNKHLFRDNNGTLVVQSLHGVFKVKDTTTLQQHLVDGRDMIIIRMPKDFPPFPQKLKFREPQREERICLVTTNFQTKSMSSMVSDTSCTFPSGDGIFWKHWIQTKDGQCGSPLVSTRDGFIVGIHSASNFTNTNNYFTSVPKNFMELLTNQEAQQWVSGWRLNADSVLWGGHKVFMVKPEEPFQPVKEATQL [R51D], the “area with substrate ENLYAQS” value stood at 0.08, the “area with substrate ENLYDQS” value was found to be 0.0591, the “area with substrate ENLYGQS” value stood at 0.0757 and the “area with substrate ENLYHQS” value turned out to be 0.0706. The “area with substrate ENLYIQS” value came out at 0.122, the “area with substrate ENLYNQS” value stood at 0.0611, the “area with substrate ENLYPQS” value was 0.0795 and the “area with substrate ENLYRQS” value came to 0.0762. The “area with substrate ENLYWQS” value came to 0.139.
